Measurements from the supplement of paper PMC12355420.
Where a name gives a salt, the structure may show the parent alone. Some of the results follow. Rule as the data show it: active = 0.5 or less and inactive = the rest. Single values are uncertain, as repeats are few or missing.

What was measured:
Conditions in all cases: 50 µM; 24 h
[1] = tested on: HeLa VPS33A reporter cells; test: relative cell viability (CellMask signal) vs DMSO (fraction of DMSO); higher = less cytotoxic;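 also: primary screen of an FDA-approved drug library in HeLa reporter cells in 96-well format, CellMask signal normalized to DMSO-treated wells set as 1, under 0.5 deemed highly cytotoxic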
[2] = tested on: HeLa VPS33A R498W KI + HA-SDC1-FLAG; test: relative GAG core protein HA-SDC1 amount per cell number vs DMSO (fraction of DMSO); higher = more SDC1 (GAG core protein);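 also: HA-SDC1 level read out by In-Cell Western staining with an anti-HA antibody against the N-terminal tag, screening FDA-approved library drugs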
[3] = tested on: HeLa VPS33A KO + NLuc-VPS33A R498W; test: relative mutant VPS33A R498W amount (NanoLuc luminescence) vs DMSO (fraction of DMSO); HeLa model of a glycosaminoglycan (GAG) storage disease; KI is knock-in and KO knock-out; SDC1 is syndecan 1; higher = higher mutant VPS33A level;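 also: screen of an FDA-approved drug library, NanoLuc luminescence read after lysing the treated cells, taken as a measure of mutant VPS33A protein stability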

SMILES | relative cell viability [1] | relative GAG core protein HA-SDC1 amount per cell number [2] | relative mutant VPS33A R498W amount [3]
C[Se]CC[C@H](N)C(=O)O [L-Selenomethionine] | 1.01 | inactive: 1.02 | 1.1
C[C@@H](O)[C@H]1C(=O)N2C(C(=O)O)=C(S[C@@H]3CN[C@H](CNS(N)(=O)=O)C3)[C@H](C)[C@H]12 [Doripenem Hydrate] | 1.09 | inactive: 1.1 | 1.47
CCCC1O[C@@H]2C[C@H]3[C@@H]4CCC5=CC(=O)C=C[C@]5(C)[C@H]4[C@@H](O)C[C@]3(C)[C@]2(C(=O)CO)O1 (stereo partly drawn) [Budesonide] | 1.05 | inactive: 0.701 | 0.725
Cc1cccc(CN2CCN(C(c3ccccc3)c3ccc(Cl)cc3)CC2)c1 (stereo not drawn) [Meclizine 2HCl] | 0.707 | active: 0.322 | 0.522
Cn1c(=O)c2nc[nH]c2n(C)c1=O [Theophylline] | 1 | inactive: 0.804 | 1.09
O=C1O[C@H](CO)[C@@H](O)[C@H](O)[C@H]1O [delta-Gluconolactone] | 1.06 | inactive: 0.86 | 1.37
C[C@]1(OC(=O)/C=C/c2ccccc2)C[C@@H](O)[C@]2(O)C=CO[C@@H](O[C@@H]3O[C@H](CO)[C@@H](O)[C@H](O)[C@H]3O)[C@@H]21 [Harpagoside] | 1.04 | inactive: 0.772 | 1.23
OCCOCCN1CCN(C(c2ccccc2)c2ccc(Cl)cc2)CC1 (stereo not drawn) [Hydroxyzine 2HCl] | 1.06 | active: 0.32 | 0.602
CNC(=O)c1ccc(Nc2ncc(C(F)(F)F)c(NCc3nccnc3N(C)S(C)(=O)=O)n2)cc1 [Defactinib] | 1.07 | inactive: 0.543 | 2.18
CC1(C)O[C@@H]2C[C@H]3[C@@H]4CCC5=CC(=O)C=C[C@]5(C)[C@@]4(F)[C@@H](O)C[C@]3(C)[C@]2(C(=O)CO)O1 [Triamcinolone Acetonide] | 1.57 | inactive: 1.46 | 0.488
Cn1cc(C2=C(c3cccc(N)c3)C(=O)NC2=O)c2ccccc21 | 1.23 | inactive: 0.736 | 1.24
CNS(=O)(=O)Cc1ccc2[nH]cc(CCN(C)C)c2c1 [Sumatriptan] | 1.01 | inactive: 1.04 | 1.26
Cc1cn(-c2cc(NC(=O)c3ccc(C)c(Nc4nccc(-c5cnccn5)n4)c3)cc(C(F)(F)F)c2)cn1 [Radotinib(IY-5511)] | 1.15 | inactive: 1.06 | 1.04
O=C(O)[C@H](O)c1ccccc1 [R-(-)-Mandelic Acid] | 1.13 | inactive: 0.797 | 1.11
CN1CCc2nc(C(=O)N[C@@H]3C[C@@H](C(=O)N(C)C)CC[C@@H]3NC(=O)C(=O)Nc3ccc(Cl)cn3)sc2C1 [Edoxaban tosylate monohydrate] | 1.22 | inactive: 0.801 | 1.37
CNC(=O)c1c(C)oc2cc(Oc3ncnc4cc(OC)c(OC)cc34)ccc12 [Fruquintinib(HMPL-013)] | 1.08 | inactive: 0.975 | 1.29
S=P(N1CC1)(N1CC1)N1CC1 | 1.17 | inactive: 0.647 | 0.863
O=S(=O)(O)NC1CCCCC1 [Cyclamic acid] | 1.02 | inactive: 0.945 | 1.5
O=c1c(O)c(-c2ccc(O)c(O)c2)oc2cc(O)cc(O)c12 [Quercetin] | 0.857 | inactive: 0.856 | 0.435
CN1c2cc(O)c(N=NC(N)=O)cc2CC1S(=O)(=O)O (stereo not drawn) [Carbazochrome sodium sulfonate (AC-17)] | 1.09 | inactive: 0.871 | 1.52
O=NN(CCCl)C(=O)NCCCl [Carmustine] | 0.963 | inactive: 0.825 | 0.853
CC(=O)CCC(=O)O [Levulinic acid] | 1.06 | inactive: 1.02 | 1.18
COCCOC(=O)C1=C(C)NC(C)=C(C(=O)OC/C=C/c2ccccc2)C1c1cccc([N+](=O)[O-])c1 (stereo not drawn) [Cilnidipine] | 0.775 | inactive: 0.558 | 0.195
[I-].[K+] [Potassium Iodide] | 0.959 | inactive: 0.868 | 1.32
O=C1OC(CN2CCOCC2)CN1/N=C/c1ccc([N+](=O)[O-])o1 (stereo not drawn) [Furaltadone HCl] | 0.878 | inactive: 0.748 | 0.53
OCCOc1ccc(/C(=C(/CCCl)c2ccccc2)c2ccccc2)cc1 [Ospemifene] | 1.36 | inactive: 0.578 | 0.628
